# Test results from PubChem BioAssay AID624296 (National Center for Advancing Translational Sciences (NCATS), 2012).
# Among all 350,000 compounds or so, about 9,900 (2.8%) were called active. Inconclusive means that the source gave no clear call. Such entries were picked first, then a sample of the others. Calls follow the shape of the dose curve; as a rule, active = well fitted activation curve with a large enough effect; inconclusive = small, poorly fitted or top-dose-only effect; inactive = no such curve, though single readings can be large or run the other way. No potency is given beside an inconclusive call; the fits are too rough.
# Assay: A quantitative high throughput screen for small molecules that induce DNA re-replication in MCF 10a normal breast cells. Also: nearly all actives have a fitted effect of over 50% in size. As to activity, positive = re-replication: % of control where 0% means no effect.
# Conditions: MCF 10A DNA re-replication, Hoechst nuclear intensity, 48 h; activity, positive = re-replication: at 46.1 µM (top of the series)
# Potency is read from the fitted curve at half-maximal effect; tags tell the direction and shape of the fitted curve.
Structure (SMILES),Potency,"activity, positive = re-replication"
Cc1ccc(-n2c(=S)[nH]c3sc4c(c3c2=O)CCc2ccccc2-4)cc1,inactive,
O=[N+]([O-])c1ccccc1CN1CCN(Cc2c[nH]c3ccccc23)CC1,inactive,
O=C(NCc1ccccn1)c1c(O)c2c([nH]c1=O)CCCC2,"inconclusive [activator, single point]",
CNC[C@H](CC1CCCCC1)NC[C@H](Cc1ccccc1)NCCC12CC3CC(CC(C3)C1)C2,"inconclusive [activator, partial curve, poor fit]",
COc1cc(C(=O)N2CCN(c3cccc(C)c3C)CC2)ccc1OCC(=O)N1CCOCC1,"inconclusive [activator, single point]",
Cc1cc(/C=C(\C#N)C(=O)Nc2ccccc2)c(C)n1-c1cccnc1,inactive,
O=C(CN1C(=O)/C(=C/c2ccccc2)Sc2ccccc21)NCCCN1CCOCC1,inactive,
COc1cc(NC(=O)C2CCCCC2)c2ncccc2c1,"inconclusive [activator, full curve, poor fit]",
O=C(N/N=C/c1ccc(N2CCOCC2)cc1)c1ccccc1OCCOc1ccccc1,"inconclusive [activator, single point]",
CC(C)[C@@H](C(=O)N1CCN(Cc2ccc3c(c2)OCO3)CC1)n1nnc2ccccc2c1=O,"inconclusive [activator, full curve, poor fit]",
CCOC(=O)c1nc(-c2ccccc2)oc1N1CCOCC1,inactive,
O=S(=O)(N/N=C\c1ccc2c(c1)OCO2)c1ccc(F)cc1,inactive,
Cn1cnnc1SCC(=O)Nc1ccc(Cl)cc1,inactive,
C[n+]1ccc(/C=N/Nc2nc(Cl)c(C#N)c(Cl)c2Cl)cc1,"inconclusive [activator, partial curve, poor fit]",
CCN(CC)C(=O)[C@H]1C[C@H](CC(=O)NCc2cccc(C(F)(F)F)c2)C(=O)N2CCc3c([nH]c4cc(-c5ccco5)ccc34)[C@]12C,"inconclusive [activator, single point]",
O=c1[nH]c(C2CCN(S(=O)(=O)c3ccccc3C(F)(F)F)CC2)nc2c1nnn2Cc1ccccc1,"inconclusive [activator, single point]",
O=C(Nc1nc2c(s1)CCCC2)c1cccnc1,inactive,
COc1ccc(NS(=O)(=O)c2cc(NC(=O)c3ccccc3)ccc2N2CCOCC2)cc1,"inconclusive [activator, partial curve, poor fit]",
O=C(Nc1ccc2ccccc2c1)c1ccccc1[N+](=O)[O-],"inconclusive [activator, single point]",
Cc1c(C(=O)NCCS(=O)(=O)N2CCN(c3ccccc3F)CC2)cccc1[N+](=O)[O-],"inconclusive [activator, single point]",
CNC(=O)c1c[nH]c2ccc(S(=O)(=O)Nc3cccc(SC)c3)cc2c1=O,"inconclusive [activator, single point]",
Cc1ccc(NC(=O)CSc2ncccn2)cc1S(=O)(=O)N1CCCCC1,inactive,
Cc1ccc(C)c(N2CCN(Cc3nnnn3C3CCCCC3)CC2)c1,"inconclusive [activator, partial curve]",
Clc1ccccc1OCCN1CCC(Cc2ccccc2)CC1,"inconclusive [activator, partial curve]",

Structure (SMILES),Potency,"activity, positive = re-replication"
C=CCn1c(SCc2ccccc2C#N)nnc1-c1cc(Br)ccc1O,"inconclusive [activator, single point]",
COc1cc(O)c(C(CC(=O)N2CCN(c3ccccc3)CC2)c2cc(OC)c(OC)c(OC)c2)c(OC)c1 (stereo not given),inactive,
C/C(=N\Nc1ccc([N+](=O)[O-])cc1)c1ccco1,"inconclusive [activator, partial curve, poor fit]",
Cc1cc(NC(=O)C2CCCN(S(=O)(=O)c3cnc[nH]3)C2)ccc1Br (stereo not given),"inconclusive [activator, single point]",
COc1cccc(CNC(=O)C(=O)NCCC2CCCCN2S(=O)(=O)c2ccc(C)cc2)c1 (stereo not given),"inconclusive [activator, single point]",
CC(C)CCOP(=O)(c1ccc(N(C)C)cc1)C(O)c1ccccc1F (stereo not given),inactive,
Cn1c(N)c(C(=O)COC(=O)c2ccccc2C(=O)c2ccc(Cl)c([N+](=O)[O-])c2)c(=O)n(C)c1=O,active: 11.6 µM,
CN(C)c1ccc(C=Cc2cnccn2)cc1,active: 18.4 µM,
CCOc1ccc(N(Cc2cc3ccc(C)cc3[nH]c2=O)S(=O)(=O)c2ccccc2)cc1,active: 20.6 µM,
Cc1cc2nc(N3CCN(C(=O)c4cccs4)CC3)sc2cc1C,inactive,
Cc1ccc(NC(=O)Nc2c(Cl)cccc2Cl)cn1,"inconclusive [activator, single point]",
CNC(=O)c1c(NC(=O)c2ccc(S(=O)(=O)N3CC(C)OC(C)C3)cc2)sc2c1CCN(C(C)C)C2 (stereo not given),"inconclusive [activator, single point]",
CC1=Nc2ccc(Br)cc2C(c2ccccc2)N1CC(=O)NN (stereo not given),"inconclusive [activator, partial curve, poor fit]",
Cc1ccccc1NC(=S)NCc1ccccc1,inactive,
COc1ccc(CCOC(=O)c2ccc(NC(=O)CC#N)cc2)cc1,"inconclusive [activator, single point]",
CCOc1cc(C(=O)CCC(=O)OCC(=O)NC(=O)NCC(C)C)ccc1O,inactive,
CCn1c(=O)cc(OCC(=O)NCc2cccnc2)c2ccccc21,"inconclusive [activator, partial curve, poor fit]",
CN(C)C(CNC(=O)c1cc(S(=O)(=O)N2CCOCC2)ccc1F)c1cccs1 (stereo not given),inactive,
CCn1c(/C=C/c2ccc(O)c(O)c2)nc2ccccc2c1=O,"inconclusive [activator, single point]",
c1cc(C(c2nnnn2C2CCCC2)N2CCOCC2)ccn1 (stereo not given),"inconclusive [activator, full curve, poor fit]",
CCNc1nc(Sc2ccc(C)cc2)cc(C(F)(F)F)n1,"inconclusive [activator, single point]",
COc1cc(C)c(C(C)C)cc1S(=O)(=O)NC1CC(C)(C)NC(C)(C)C1,"inconclusive [activator, single point]",
Cc1ccc(NC(=O)CCOc2ccccc2)cc1,"inconclusive [activator, single point]",
COc1ccc(-n2nc([N+](=O)[O-])c(=NC3CCN(Cc4ccccc4)CC3)n2O)cc1,inactive,

Structure (SMILES),Potency,"activity, positive = re-replication"
CCCn1c(=O)c2ccccc2n2c(SCCOc3ccc(OC)cc3)nnc12,inactive,
Cc1csc(SCC(=O)NC(=O)NCCC(C)C)n1,"inconclusive [activator, partial curve, poor fit]",
CC(=O)Nc1sc(C)c(C)c1C(=O)OCCOc1ccccc1,inactive,
Cc1nc2nc(SCc3nc4ccccc4[nH]3)[nH]c2cc1Br,"inconclusive [activator, partial curve, poor fit]",
COc1cc(C(=O)N/N=C/c2ccc(OC(=O)c3ccccc3Cl)cc2)ccc1O,inactive,
Nc1cc(Cl)ccc1C(=O)OCC(=O)NCC1CCCO1 (stereo not given),inactive,
Cn1cnnc1SCC(=O)N1N=C(c2ccc(Cl)cc2)CC1c1ccco1 (stereo not given),"inconclusive [activator, single point]",
CCCNS(=O)(=O)c1cccc(C(=O)NC2CCCc3ccccc32)c1 (stereo not given),"inconclusive [activator, single point]",
CC(=C/C(=O)O)/C=C/c1ccco1,"inconclusive [activator, partial curve, poor fit]",
Cc1ccc(NC(=O)CN(C)C(=O)c2ccc(C(F)(F)F)cc2)cc1,inactive,
CC(Oc1ccc(F)cc1)C(=O)Nc1ccccc1N1CCCCC1 (stereo not given),inactive,
O=C(NCc1ccc2c(c1)OCO2)C1CCN(c2ncccn2)CC1,inactive,
Cc1ccc(SCc2[nH]nc3c2C2(C(=O)Nc4ccc(F)cc42)C(C#N)=C(N)O3)cc1 (stereo not given),"inconclusive [activator, single point]",
O=C(CN1C(=O)NC(c2ccccc2)(c2ccccc2)C1=O)N1CCN(c2ccccc2F)CC1,inactive,
Cc1cccc(CN2CCN(C(c3ccccc3)c3ccc(Cl)cc3)CC2)c1 (stereo not given),active: 23.1 µM,
COCCn1nnnc1C(c1cc2cc(OC)ccc2[nH]c1=O)N1CCC(Cc2ccccc2)CC1 (stereo not given),"inconclusive [activator, single point]",
CCCCC(=O)Nc1ccccc1N1CCOCC1,"inconclusive [activator, single point]",
O=C(Nc1ccc(S(=O)(=O)N2CCOCC2)cc1)c1cccnc1,"inconclusive [activator, single point]",
COc1ccc(C(CNC(=O)c2ccc(-c3ccccc3Cl)o2)N2CCOCC2)cc1 (stereo not given),"inconclusive [activator, single point]",
O=C(NCCC1=CCCCC1)c1ccc(=O)oc1,,inactive: -183% [at 0.0737 µM]
Cc1nc(C(=O)Nc2ccc(Cl)cc2Cl)nn1-c1cc(OC(C)C)c(Cl)cc1Cl,"inconclusive [activator, partial curve]",
CCCn1c(NC(=O)c2ccc(C)cc2)nc2ccccc21,"inconclusive [activator, single point]",
